Measured values from PubChem BioAssay (NCATS).
“And” between values parts separate entries of the source, which are not always exact repeats. Equal values may be shown once. The inconclusive results got no clear call from the source; some entries with a clear call stand among them for comparison. For some of these results: A potency beside an inconclusive call is a rough fit, not a confirmed value. The source made the active and inactive calls. Calls follow the shape of the dose curve; as a rule, active = well fitted curve in the direction sought with a large enough effect; inconclusive = small, poorly fitted or top-dose-only effect, or another doubt; inactive = no such curve, though single readings can be large; an effect the other way counts as inactive or inconclusive.

Legend:
[1] = Viability qHTS for spleen associated tyrosine kinase inhibitor (SYKi) naive MV4-11 cells (AID 1963823); also: nearly all actives have a fitted effect of over 40% in size; also: potency is read from the fitted curve at half-maximal effect
Outline: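 Compounds were dispensed acoustically onto plates, MV4-11 cells (SYKi-naive) added at 500 per well, and plates incubated 72 hr at 37 C. CellTiter-Glo was added and luminescence measured after 10 min.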

[2] = Viability qHTS for spleen associated tyrosine kinase inhibitor (SYKi) drug resistant MV4-11 cells (AID 1963824); also: nearly all actives have a fitted effect of over 35% in size; also: potency is read from the fitted curve at half-maximal effect
Outline: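 SYK inhibitor-resistant MV4-11 AML cells, 500 per well, added to predispensed compounds and incubated 72 hr at 37 C, 5% CO2. Viability measured by CellTiter-Glo luminescence after 10 min at room temperature.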

[3] = Cellular viability qHTS for adrenocortical cancer (ACC) cell line SW-13 (AID 1963989); settings: SW-13 ACC cells viability, CellTiter-Glo, 48 h; activity (max response): stronger effect = lower value; also: nearly all actives have a fitted effect of over 65% in size; also: potency is read from the fitted curve at half-maximal effect;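 as to activity (max response): cells grown in serum-free medium with ITS supplement; % is scaled to controls: 0 for no effect and ±100 for the full control effect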
Outline: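 SW-13 cells in ITS-supplemented serum-free DMEM were plated overnight, then exposed for 48 h at 37C to compound titrations (up to 46 uM final). Viability was read by CellTiter-Glo luminescence; four-parameter logistic fits gave IC50 and efficacy.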

[4] = Quantitative highthroughput screen to assess conditional lethalithy of SEM cells grown in RPMI1640 with unreated serum (RPMI+s) (AID 1963883);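 also: 100% = DMSO wells and 0% = empty wells without cells; nearly all actives have a fitted effect of over 35% in size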
Outline: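 Each medium arm—HPLM with 10% dialyzed FBS, or RPMI1640 with 5 mM glucose and 10% untreated or dialyzed FBS—was screened against an 11-point, 3-fold compound titration for 48 h at 37 °C, with CellTiter-Glo luminescence as endpoint.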

[5] = Cellular viability qHTS for adrenocortical cancer (ACC) cell line NCI-H295R (AID 1963990); settings: CellTiter-Glo ATP luminescence, 48 h; activity change, negative = viability loss: at 46.1 µM (top of the series); also: potency is read from the fitted curve at half-maximal effect; nearly all actives have a fitted effect of over 60% in size
Outline: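 Luminescent ATP read-out (CellTiter-Glo, 20 min RT) after 48 h drug exposure of NCI-H295R cells; a titration up to 46 uM final. Data normalized to doxorubicin (100% inhibition) and DMSO (0%); 4-parameter fit gives IC50, max response.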
Tags tell the direction and shape of the fitted curve.

Row | SMILES | Potency [1] | Potency [2] | Potency [3] | activity (max response) [3] | Potency [4] | Potency [5]
1 | CNC(=O)c1ccc(N2C(=S)N(c3ccc(C#N)c(C(F)(F)F)c3)C(=O)C23CCC3)cc1F | inconclusive: 16.4 µM [cytotoxic, partial curve, poor fit] and inconclusive: 16.6 µM [cytotoxic, partial curve] | inconclusive: 14.6 µM [cytotoxic, partial curve] and active: 18.6 µM | inconclusive: 31.6 µM [cytotoxic, partial curve, poor fit] | – | – | –
2 | C[C@H]1O[C@@H](O[C@H]2[C@@H](O)C[C@H](O[C@H]3[C@@H](O)C[C@H](O[C@H]4CC[C@@]5(C)[C@H](CC[C@@H]6[C@@H]5CC[C@]5(C)[C@@H](C7=CC(=O)OC7)CC[C@]65O)C4)O[C@@H]3C)O[C@@H]2C)C[C@H](O)[C@@H]1O | inconclusive: 66.8 nM [cytotoxic, full curve] and inconclusive: 61.1 nM [cytotoxic, full curve] | active: 47.3 nM and active: 38.5 nM | active: 0.0184 µM | – | – | –
3 | NC1=NC(=O)C(c2ccccc2)O1 (centres undefined) | inconclusive: 0.266 µM [rising, full curve, poor fit] | inconclusive: 0.003 µM [rising, full curve, poor fit] | – | inactive: 8.75% | – | –
4 | Oc1c(Br)cc(Br)cc1Br | inactive | inconclusive: 33.5 µM [cytotoxic, single point] | – | inactive: 8.39% | – | –
5 | Nc1ccccc1C(=O)O | inactive | inconclusive: 15 µM [cytotoxic, single point] | inconclusive: 29.1 µM [cytotoxic, single point] | – | – | –
6 | CCCCC(CC)COC(=O)c1ccccc1C(=O)OCC(CC)CCCC (centres undefined) | inconclusive: 0.0386 µM [rising, full curve, poor fit] | inconclusive: 0.0039 µM [rising, full curve, poor fit] | – | inactive: 14% | – | –
7 | CN(C)CCN(C)CCc1ccc(Cl)c(Cl)c1 | inconclusive: 33.2 µM [cytotoxic, single point] | inconclusive: 20.9 µM [cytotoxic, partial curve, poor fit] | – | – | inactive | –
8 | CC(=O)N1N=C(c2ccc(N)cc2)c2cc3c(cc2C[C@H]1C)OCO3 | inconclusive: 14.8 µM [cytotoxic, partial curve, poor fit] | inconclusive: 6.51 µM [cytotoxic, partial curve, poor fit] | – | inactive: -25.9% | – | –
9 | COc1ccc(CN2CCNCC2)c(OC)c1OC | inactive | inconclusive: 29.9 µM [cytotoxic, single point] | – | inactive: 10.4% | – | –
10 | c1ccc2c(c1)OCC(C1=NCCN1)O2 (centres undefined) | inconclusive: 33.5 µM [cytotoxic, single point] | inactive | inconclusive: 18.4 µM [cytotoxic, single point] | – | – | –
11 | COC(=O)c1cncn1C(C)c1ccccc1 (centres undefined) | inconclusive: 0.0033 µM [cytotoxic, full curve, poor fit] | inconclusive: 0.0168 µM [cytotoxic, full curve, poor fit] | – | inactive: -8.99% | – | –
12 | O=[N+]([O-])c1cc([N+](=O)[O-])c2ccccc2c1 | inconclusive: 21.7 µM [cytotoxic, partial curve] | inconclusive: 12.2 µM [cytotoxic, partial curve] | – | inactive: -5.95% | – | –
13 | COc1cccc2c1C(=O)c1c(O)c3c(c(O)c1C2=O)C[C@@](O)(C(=O)CO)CC3OC1CC(N2CCOC(OC)C2)C(O)C(C)O1 (some centres undefined) | active: 0.0027 µM | inconclusive: 0.0027 µM [cytotoxic, full curve] | active: 0.1 µM | – | – | –
14 | C[C@]12CCC(=O)C=C1CC[C@@H]1[C@@H]2CC[C@@]2(C)[C@H]1CC[C@]2(C)O | inconclusive: 7.5 µM [cytotoxic, partial curve, poor fit] | inconclusive: 15 µM [cytotoxic, partial curve] | inconclusive: 25.9 µM [cytotoxic, single point] | – | – | –
15 | CN1CC[C@]23c4c5ccc(O)c4O[C@H]2[C@@H](O)CC[C@H]3[C@H]1C5 | inconclusive: 0.846 µM [rising, partial curve, poor fit] | inconclusive: 59.9 µM [cytotoxic, single point] | – | inactive: -1.35% | – | –
16 | CCCCCCCCc1ccc(O)cc1 | inconclusive: 9.79 µM [cytotoxic, partial curve, poor fit] | inconclusive: 27.6 µM [cytotoxic, partial curve] | inconclusive: 5.62 µM [cytotoxic, full curve] | – | – | inconclusive: 1.12 µM [cytotoxic, full curve, poor fit]
17 | C[C@]12C=CC(=O)C=C1CC[C@@H]1[C@@H]2CC[C@@]2(C)[C@H]1CC[C@]2(C)O | inconclusive: 15 µM [cytotoxic, partial curve, poor fit] | inconclusive: 23.7 µM [cytotoxic, single point] | inconclusive: 18.4 µM [cytotoxic, single point] | – | – | inconclusive: 29.1 µM [cytotoxic, single point]
18 | O=S(=O)(O)C(F)(F)C(F)(F)C(F)(F)C(F)(F)C(F)(F)C(F)(F)C(F)(F)C(F)(F)F | inconclusive: 17.2 µM [cytotoxic, partial curve, poor fit] | inconclusive: 24.3 µM [cytotoxic, partial curve] | inconclusive: 56.2 µM [cytotoxic, single point] | – | – | inconclusive: 25.1 µM [cytotoxic, partial curve, poor fit]
19 | COc1nn(CSP(=S)(OC)OC)c(=O)s1 | active: 38.6 µM | inconclusive: 68.6 µM [cytotoxic, single point] | – | – | – | active: 25.1 µM
20 | CN1CC[C@]23c4c5ccc(O)c4O[C@H]2[C@@H](O)C=C[C@H]3[C@H]1C5 | inconclusive: 67.9 µM [cytotoxic, single point] | inconclusive: 67.9 µM [cytotoxic, single point] | inconclusive: 56.2 µM [cytotoxic, single point] | – | – | inconclusive: 39.8 µM [cytotoxic, single point]
